These results are taken from PubChem BioAssay AID2060622 (Molecular Pharmacology Branch, DTP, NCI, 2025).

The experiment relates to 242566-281-R-J2-PDC complex spheroid viability. Description: Anticancer human tumor 242566-281-R-J2-PDC patient-derived pancreatic carcinoma cell line growth inhibition [CLK]. Particulars: for viability, T/C: stronger effect = lower value. The source says:
A high-throughput screen of multi-cell type tumor spheroids was designed to identify active combinations of […] and targeted small molecules. Complex spheroids include a stromal component modeled by human endothelial cells (HUVEC) and fibroblasts modeled by human mesenchymal stem cells (MSCs). The concentration ranges selected for each drug and investigational agent were based upon clinically achievable concentrations if the clinical Cmax of the agent was known.
Compounds. The drugs and investigational agents: cirtuvivint (SM08502; NSC835563), CC-671 (NSC850746), vemurafenib (NSC761431), tapotoclax (NSC804041), sotorasib (NSC818433), adagrasib (NSC831453), MRTX-1133 (NSC836407), BAY2416964 (NSC825713), copanlisib (NSC816437), inavolisib (NSC800729), abemaciclib (NSC768073), osimertinib (NSC779217), entinostat (NSC756642), eltanexor (KPT-8602, NSC794443), venetoclax (NSC766270), ceralasertib (NSC777638), bortezomib (NSC756655), olaparib (NSC753686), talazoparib (NSC767125), alisertib (NSC759677), peposertib (NSC802822), gemcitabine (NSC613327), 5-fluorouracil (NSC19893), SN-38 (NSC673596), oxaliplatin (NSC266046), paclitaxel (NSC125973), and doxorubicin (NSC123127), were obtained from the National Cancer Institute (NCI) Developmental Therapeutics Program Chemical Repository. The FDA-approved anticancer drug set is available from the Developmental Therapeutics Program at https://dtp.cancer.gov/organization/dscb/obtaining/available plates.htm. […] The stock solutions were prepared in dimethyl sulfoxide (DMSO, Sigma-Aldrich, St. Louis, MO, cat. D2650), except for the platinum complexes which were prepared in saline (Quality Biological, Gaithersburg, MD, cat. 114-055-101), at 800-fold the tested concentration and stored at -70 degrees C prior to their use. All drugs and investigational agents were tested over a range starting from a high concentration at or near the clinical Cmax and decreasing in half-log increments. If the clinical Cmax for an agent had not been determined, the highest concentration tested was 10 microM.
Cell Culture. All cells were maintained in an incubator at 37 degrees C and 5% CO2 with 95% humidity. The PDC lines were cultured according to standard operating procedures established by the NCI PDMR. Briefly, all PDCs were thawed and cultured in Matrigel-coated flasks prepared with a working solution of 1X Ham's F-12 nutrient mix, without supplementation (Invitrogen, Waltham, MA, cat. 11765054), 100 U/mL penicillin-streptomycin (Invitrogen, cat. 15140122), and 2.5% Matrigel (Corning Inc., Corning, NY, cat. 354248) for the first three passages. The 947758-054-R-J2-PDC line was cultured in 6B/Colon 1A media, which includes advanced DMEM/F-12 (Thermo Fisher Scientific, cat. 12634028), 10 mM HEPES (Thermo Fisher Scientific, cat. 15630080), 1X GlutaMAX supplement (Thermo Fisher Scientific, cat. 35050061), 0.1 mg/mL primocin (InvivoGen, cat. ant-pm-2), 10% defined fetal bovine serum, heat inactivated (HyClone Laboratories Inc., cat. SH30070.03HI), 1.25 mM N-Acetyl-L-cysteine (Sigma-Aldrich, cat. A9165), 10 mM nicotinamide (Sigma-Aldrich, cat. N0636), 1X B-27 supplement (Thermo Fisher Scientific, cat. 17504044), 1X N-2 supplement (Thermo Fisher Scientific, cat. 17502048), and 10 microM Y-27632 dihydrochloride (Tocris Bioscience, cat. 1254). […]

Some entries of the source have several records that differ or are many. This list holds those alone. There may be further records. Values that stand side by side are repeated measurements (runs, samples, wells, individuals or studies). A date in brackets names the month of the test.

For orientation: IC50 means the concentration needed to halve the response being measured. In general, viability, T/C refers to the ratio of treated to control.
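Further: spheroids exposed to compounds for 7 days before readout.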

With `C#Cc1c(F)ccc2cc(O)cc(-c3ncc4c(N5CC6CCC(C5)N6)nc(OCC56CCCN5CC(F)C6)nc4c3F)c12` (stereo not given), the IC50 (compound alone) was 116 nM [2023-07] and 2.55 µM [2023-08].
Regarding `CNC(=O)c1ccc(Nc2nc(OC3CCCC3)c3c(-c4ccc5nc(C)oc5c4)c[nH]c3n2)c(OC)c1`, the viability, T/C reads like this: (compound alone 0.0316 µM) 91.2, 89.5, 104, 87.8, 86, 79.9, 81.4, 83.5, 74.7, 96.3, 87, 103%; (compound alone 0.1 µM) 88.9, 85.3, 107, 76, 88.8, 88.6, 78.1, 89.4, 85.4, 79.1, 91.8, 72%; (compound alone 0.316 µM) 87.8, 82.3, 80.7, 90.9, 96.2, 97.3, 93.1, 85.1, 90.1, 71.8, 94.7, 88.9%.
For the molecule `CN1CCN(c2cc(C(=O)Nc3cc4cc(-c5cnn(C)c5)ccc4cn3)ccn2)CC1`, the viability, T/C (compound alone 0.316 µM) is 31.2, 22.4, 23.9, 34.8, 33.1, 34.2, 43.7, 34.9, 35.5, 37.6, 48.3, 38.3%.
